# Experimental data: the supplement of paper PMC8728848
# The list shows a part of the results.
# How the values were obtained:
# Assay in all cases: glycan array binding signal (z-score within array); higher = stronger binding
# Details in all cases: glycan notation: IUPAC condensed, linker removed
# Fuc(a1-2)Gal = target: Fuc(a1-2)Gal
# Procedure, shortened: (§1)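 Glycan array data were curated from 3228 arrays in the Consortium for Functional Glycomics database and kept only where the protein sequence was available. Glycan names were converted to IUPAC-condensed notation, and columns mapping to the same glycan were averaged. The binding signal is a within-array Z-score, averaged across arrays of the same protein sequence at different concentrations or buffers and across linkers. Negative Z-scores can be read as non-binding.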
# Fuc(a1-2)Gal(b1-3)GalNAc = target: Fuc(a1-2)Gal(b1-3)GalNAc
# Procedure, shortened: as §1
# [1] = target: Fuc(a1-2)Gal(b1-3)GalNAc(a1-3)[Fuc(a1-2)]Gal(b1-4)Glc
# Procedure, shortened: as §1
# [2] = target: Fuc(a1-2)Gal(b1-3)GalNAc(a1-3)[Fuc(a1-2)]Gal(b1-4)GlcNAc
# Procedure, shortened: as §1
# [3] = target: Fuc(a1-2)Gal(b1-3)GalNAc(b1-3)Gal
# Procedure, shortened: as §1
# [4] = target: Fuc(a1-2)Gal(b1-3)GalNAc(b1-3)Gal(a1-4)Gal(b1-4)Glc
# Procedure, shortened: as §1
# [5] = target: Fuc(a1-2)Gal(b1-3)GalNAc(b1-3)Gal(b1-4)Glc
# Procedure, shortened: as §1
# [6] = target: Fuc(a1-2)Gal(b1-3)GalNAc(b1-4)[Neu5Ac(a2-3)]Gal(b1-4)Glc
# Procedure, shortened: as §1
# Fuc(a1-2)Gal(b1-3)GlcNAc = target: Fuc(a1-2)Gal(b1-3)GlcNAc
# Procedure, shortened: as §1
# [7] = target: Fuc(a1-2)Gal(b1-3)GlcNAc(b1-2)Man(a1-3)[Fuc(a1-2)Gal(b1-3)GlcNAc(b1-2)Man(a1-6)]Man(b1-4)GlcNAc(b1-4)GlcNAc
# Procedure, shortened: as §1
# [8] = target: Fuc(a1-2)Gal(b1-3)GlcNAc(b1-2)Man(a1-3)[Fuc(a1-2)Gal(b1-3)GlcNAc(b1-2)Man(a1-6)]Man(b1-4)GlcNAc(b1-4)[Fuc(a1-6)]GlcNAc
# Procedure, shortened: as §1
# [9] = target: Fuc(a1-2)Gal(b1-3)GlcNAc(b1-3)Gal(b1-4)Glc
# Procedure, shortened: as §1
# [10] = target: Fuc(a1-2)Gal(b1-3)GlcNAc(b1-3)GalNAc
# Procedure, shortened: as §1
# [11] = target: Fuc(a1-2)Gal(b1-3)GlcNAc(b1-3)[Fuc(a1-2)Gal(b1-3)GlcNAc(b1-6)]GalNAc
# Procedure, shortened: as §1
# [12] = target: Fuc(a1-2)Gal(b1-3)GlcNAc(b1-3)[Gal(b1-4)GlcNAc(b1-6)]Gal(b1-4)Glc
# Procedure, shortened: as §1
# [13] = target: Fuc(a1-2)Gal(b1-3)GlcNAc(b1-3)[Neu5Ac(a2-6)Gal(b1-4)GlcNAc(b1-6)]Gal(b1-4)Glc
# Procedure, shortened: as §1
# [14] = target: Fuc(a1-2)Gal(b1-3)GlcNAc6S
# Procedure, shortened: as §1
# [15] = target: Fuc(a1-2)Gal(b1-3)[Fuc(a1-4)]GlcNAc
# Procedure, shortened: as §1
# [16] = target: Fuc(a1-2)Gal(b1-3)[Fuc(a1-4)]GlcNAc(b1-2)Man(a1-3)[Fuc(a1-2)Gal(b1-3)[Fuc(a1-4)]GlcNAc(b1-2)Man(a1-3)]Man(b1-4)GlcNAc(b1-4)GlcNAc
# Procedure, shortened: as §1
# [17] = target: Fuc(a1-2)Gal(b1-3)[Fuc(a1-4)]GlcNAc(b1-2)Man(a1-3)[Fuc(a1-2)Gal(b1-3)[Fuc(a1-4)]GlcNAc(b1-2)Man(a1-6)]Man(b1-4)GlcNAc(b1-4)[Fuc(a1-6)]GlcNAc(b1-4)[Fuc(a1-6)]GlcNAc
# Procedure, shortened: as §1
# [18] = target: Fuc(a1-2)Gal(b1-3)[Fuc(a1-4)]GlcNAc(b1-3)[Fuc(a1-3)[Gal(b1-4)]GlcNAc(b1-6)]Gal(b1-4)Glc
# Procedure, shortened: as §1
# [19] = target: Fuc(a1-2)Gal(b1-3)[Fuc(a1-4)]GlcNAc(b1-3)[Gal(b1-4)GlcNAc(b1-6)]Gal(b1-4)Glc
# Procedure, shortened: as §1
# [20] = target: Fuc(a1-2)Gal(b1-4)Fuc(a1-3)]GlcNAc(b1-2)Man(a1-3)[Fuc(a1-2)Gal(b1-4)[Fuc(a1-3)]GlcNAc(b1-2)Man(a1-6)]Man(b1-4)GlcNAc(b1-4)GlcNAc
# Procedure, shortened: as §1
# Fuc(a1-2)Gal(b1-4)Glc = target: Fuc(a1-2)Gal(b1-4)Glc
# Procedure, shortened: as §1
# Fuc(a1-2)Gal(b1-4)Glc6S = target: Fuc(a1-2)Gal(b1-4)Glc6S
# Procedure, shortened: as §1
# Fuc(a1-2)Gal(b1-4)GlcNAc = target: Fuc(a1-2)Gal(b1-4)GlcNAc
# Procedure, shortened: as §1
# [21] = target: Fuc(a1-2)Gal(b1-4)GlcNAc(b1-2)Man
# Procedure, shortened: as §1
# [22] = target: Fuc(a1-2)Gal(b1-4)GlcNAc(b1-2)Man(a1-3)[Fuc(a1-2)Gal(b1-4)GlcNAc(b1-2)Man(a1-6)]Man(b1-4)GlcNAc(b1-4)GlcNAc
# Procedure, shortened: as §1
# [23] = target: Fuc(a1-2)Gal(b1-4)GlcNAc(b1-2)Man(a1-3)[Fuc(a1-2)Gal(b1-4)GlcNAc(b1-2)Man(a1-6)]Man(b1-4)GlcNAc(b1-4)[Fuc(a1-6)]GlcNAc
# Procedure, shortened: as §1
# [24] = target: Fuc(a1-2)Gal(b1-4)GlcNAc(b1-2)[Fuc(a1-2)Gal(b1-4)GlcNAc(b1-4)]Man(a1-3)[Fuc(a1-2)Gal(b1-4)GlcNAc(b1-2)Man(a1-6)]Man(b1-4)GlcNAc(b1-4)GlcNAc
# Procedure, shortened: as §1
# [25] = target: Fuc(a1-2)Gal(b1-4)GlcNAc(b1-3)Gal(b1-4)GlcNAc
# Procedure, shortened: as §1
# [26] = target: Fuc(a1-2)Gal(b1-4)GlcNAc(b1-3)Gal(b1-4)GlcNAc(b1-2)Man(a1-3)[Fuc(a1-2)Gal(b1-4)GlcNAc(b1-3)Gal(b1-4)GlcNAc(b1-2)Man(a1-6)]Man(b1-4)GlcNAc(b1-4)GlcNAc
# Procedure, shortened: as §1
# [27] = target: Fuc(a1-2)Gal(b1-4)GlcNAc(b1-3)Gal(b1-4)GlcNAc(b1-3)Gal(b1-4)GlcNAc
# Procedure, shortened: as §1
# [28] = target: Fuc(a1-2)Gal(b1-4)GlcNAc(b1-3)GalNAc
# Procedure, shortened: as §1
# [29] = target: Fuc(a1-2)Gal(b1-4)GlcNAc(b1-3)[Fuc(a1-2)Gal(b1-4)GlcNAc(b1-6)]GalNAc
# Procedure, shortened: as §1
# [30] = target: Fuc(a1-2)Gal(b1-4)GlcNAc(b1-3)[Fuc(a1-3)[Gal(b1-4)]GlcNAc(b1-6)]Gal(b1-4)Glc
# Procedure, shortened: as §1
# [31] = target: Fuc(a1-2)Gal(b1-4)GlcNAc(b1-6)GalNAc
# Procedure, shortened: as §1
# [32] = target: Fuc(a1-2)Gal(b1-4)GlcNAc6S
# Procedure, shortened: as §1
# [33] = target: Fuc(a1-2)Gal(b1-4)[Fuc(a1-3)]GalNAc(b1-3)Gal(b1-4)[Fuc(a1-3)]GlcNAc
# Procedure, shortened: as §1
# [34] = target: Fuc(a1-2)Gal(b1-4)[Fuc(a1-3)]GalNAc(b1-3)Gal(b1-4)[Fuc(a1-3)]GlcNAc(b1-3)Gal(b1-4)[Fuc(a1-3)]GalNAc
# Procedure, shortened: as §1
# [35] = target: Fuc(a1-2)Gal(b1-4)[Fuc(a1-3)]GlcNAc
# Procedure, shortened: as §1
# [36] = target: Fuc(a1-2)Gal(b1-4)[Fuc(a1-3)]GlcNAc(b1-2)Man(a1-3)[Fuc(a1-2)Gal(b1-4)[Fuc(a1-3)]GlcNAc(b1-2)Man(a1-6)]Man(b1-4)GlcNAc(b1-4)[Fuc(a1-6)]GlcNAc
# Procedure, shortened: as §1
# [37] = target: Fuc(a1-2)Gal(b1-4)[Fuc(a1-3)]GlcNAc(b1-2)[Fuc(a1-2)Gal(b1-4)[Fuc(a1-3)]GlcNAc(b1-4)]Man(a1-3)[Fuc(a1-2)Gal(b1-4)[Fuc(a1-3)]GlcNAc(b1-2)Man(a1-6)]Man(b1-4)GlcNAc(b1-4)GlcNAc
# Procedure, shortened: as §1
# [38] = target: Fuc(a1-2)Gal(b1-4)[Fuc(a1-3)]GlcNAc(b1-3)Gal(b1-4)[Fuc(a1-3)]GlcNAc
# Procedure, shortened: as §1
# [39] = target: Fuc(a1-2)Gal(b1-4)[Fuc(a1-3)]GlcNAc(b1-3)Gal(b1-4)[Fuc(a1-3)]GlcNAc(b1-3)Gal(b1-4)[Fuc(a1-3)]GlcNAc
# Procedure, shortened: as §1
binder,measurement,setting,value
XL-35 (Xenopus laevis) (protein) MLVHILLLLVTGGLSQSCDPVVIVASKNMVKQLDCDKFRNCKEIKDSNEEAQDGIYTLTSPDGISYQTFCDMTTNGGGWTLVASVHENNMAGKCTIGDRWSSQQGNRADYPEGDGNWANYNTFGSAGGATSDDYKNPGYYDIEAYNLGVWHVPNKTPLSVWRNSSLQRYRTTDGILFKHGGNLFSLYRIYPVKYGIGSCSKDSGPTVPVVYDLGSANLTASFYSPGFRSQFTPGYIQFRPINTEKAALALCPGMKMESCNVEHVCIGGGGYFPEADPRQCGDFAAYDFNGYGTKKFNSAGIEITEAAVLLFYL,glycan array binding signal (z-score),Fuc(a1-2)Gal,0.253
same,glycan array binding signal (z-score),Fuc(a1-2)Gal(b1-3)GalNAc,-0.094
same,glycan array binding signal (z-score),[1],0.018
same,glycan array binding signal (z-score),[2],-0.565
same,glycan array binding signal (z-score),[3],-0.134
same,glycan array binding signal (z-score),[4],-0.19
same,glycan array binding signal (z-score),[5],-0.081
same,glycan array binding signal (z-score),[6],-0.108
same,glycan array binding signal (z-score),Fuc(a1-2)Gal(b1-3)GlcNAc,-0.129
same,glycan array binding signal (z-score),[7],0.025
same,glycan array binding signal (z-score),[8],0.565
same,glycan array binding signal (z-score),[9],-0.076
same,glycan array binding signal (z-score),[10],-0.08
same,glycan array binding signal (z-score),[11],0.085
same,glycan array binding signal (z-score),[12],0.054
same,glycan array binding signal (z-score),[13],-0.182
same,glycan array binding signal (z-score),[14],-0.184
same,glycan array binding signal (z-score),[15],0.434
same,glycan array binding signal (z-score),[16],-0.215
same,glycan array binding signal (z-score),[17],0.1
same,glycan array binding signal (z-score),[18],-0.376
same,glycan array binding signal (z-score),[19],-0.02
same,glycan array binding signal (z-score),[20],0.243
same,glycan array binding signal (z-score),Fuc(a1-2)Gal(b1-4)Glc,-0.185
same,glycan array binding signal (z-score),Fuc(a1-2)Gal(b1-4)Glc6S,0.014
same,glycan array binding signal (z-score),Fuc(a1-2)Gal(b1-4)GlcNAc,-0.154
same,glycan array binding signal (z-score),[21],-0.462
same,glycan array binding signal (z-score),[22],0.359
same,glycan array binding signal (z-score),[23],-0.285
same,glycan array binding signal (z-score),[24],0.358
same,glycan array binding signal (z-score),[25],-0.123
same,glycan array binding signal (z-score),[26],-0.148
same,glycan array binding signal (z-score),[27],-0.134
same,glycan array binding signal (z-score),[28],-0.325
same,glycan array binding signal (z-score),[29],-0.14
same,glycan array binding signal (z-score),[30],-0.454
same,glycan array binding signal (z-score),[31],-0.097
same,glycan array binding signal (z-score),[32],-0.138
same,glycan array binding signal (z-score),[33],-0.067
same,glycan array binding signal (z-score),[34],0.007
same,glycan array binding signal (z-score),[35],-0.188
same,glycan array binding signal (z-score),[36],0.004
same,glycan array binding signal (z-score),[37],-0.067
same,glycan array binding signal (z-score),[38],0.292
same,glycan array binding signal (z-score),[39],0.014
